Measured values reported in PubChem BioAssay AID2147 (National Center for Advancing Translational Sciences (NCATS), 2009).
About 3,600 (1.6%) of roughly 230,000 compounds were called active. Inconclusive results, whose numbers are uncertain, are shown with a selection of clear calls. The call rests on the fitted dose curve; in most records, active means well fitted inhibition curve with a large enough effect (not every such curve was filed as active); inconclusive means small, poorly fitted or top-dose-only effect, or another doubt; inactive means no such curve, though single readings can be large or run the other way. Potencies beside an inconclusive call are fits to weak or partial responses and may not hold up.

molecular target: Lysine-specific demethylase 4E (Homo sapiens) (UniProt B2RXH2); test: qHTS Assay for Inhibitors of Human Jumonji Domain Containing 2E (JMJD2E); conditions: JMJD2E catalytic domain, FDH-coupled NADH fluorescence (FDH is formaldehyde dehydrogenase); series mostly up to 57.1 µM
Further: nearly all actives have a fitted effect of over 50% in size.
Potency means the concentration at half of the fitted maximal effect; tags describe the fitted curve by direction and shape.

UniProt B2RXH2, sequence (B2RXH2 whole entry, looked up, the tested form may be a part): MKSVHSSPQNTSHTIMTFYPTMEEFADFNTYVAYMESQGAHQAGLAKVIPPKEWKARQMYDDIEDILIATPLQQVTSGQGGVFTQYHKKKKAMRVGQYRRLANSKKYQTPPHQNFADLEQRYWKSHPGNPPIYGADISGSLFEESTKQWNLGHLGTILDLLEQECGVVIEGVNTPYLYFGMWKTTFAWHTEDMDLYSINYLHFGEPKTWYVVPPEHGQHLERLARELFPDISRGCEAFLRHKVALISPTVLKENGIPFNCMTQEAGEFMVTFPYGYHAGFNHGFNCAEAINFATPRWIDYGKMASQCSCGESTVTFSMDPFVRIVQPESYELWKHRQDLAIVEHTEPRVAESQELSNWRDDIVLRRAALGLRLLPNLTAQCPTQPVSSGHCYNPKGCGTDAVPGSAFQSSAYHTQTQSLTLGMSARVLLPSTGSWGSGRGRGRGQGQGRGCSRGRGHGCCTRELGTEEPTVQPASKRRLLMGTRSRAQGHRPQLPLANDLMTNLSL

Which Potency does the source give for CCOC(=O)/C(C#N)=C1/C=C(C)NC(c2ccccc2O)=N1 here?
The Potency was inconclusive: 22.4 µM [inhibitor, single point].

COc1cccc(CN2CCN(C(=O)Nc3ccc([N+](=O)[O-])cc3)CC2)c1 was tested. Which Potency did it give?
Its Potency is “inactive”.

Cc1cc(C)c(C#N)c(SCC(=O)N(C)C2CCCCC2)n1 was tested. Which Potency did it give?
Its Potency is “inactive”.

Cn1c2ccccc2c2cc(C(=O)O)ccc21 was tested. Which Potency did it give?
The Potency was inconclusive: 31.6 µM [inhibitor, single point].

For O=C(CSc1nc(-c2cccs2)cc(C(F)(F)F)n1)NCc1ccco1, which Potency is on record?
The Potency was inconclusive: 35.5 µM [inhibitor, single point].

Cc1cc2n(n1)C(c1ccsc1)Nc1ccccc1-2 (stereo unspecified) was tested. Which Potency did it give?
The Potency was inconclusive: 25.1 µM [inhibitor, partial curve].

How did the Potency turn out when CCCCOC(=O)CNc1n[nH]c(=S)[nH]c1=O was run?
Its Potency is “inactive”.

For COc1cc(/C=N/NC(=O)c2ccc(-n3cccc3)cc2)ccc1O, which Potency is on record?
The Potency was inconclusive: 39.8 µM [inhibitor, single point].

With COc1cc(/C=N/N2C(=O)C3C4C=CC(CC4)C3C2=O)ccc1O (stereo unspecified) as the molecule, how does the Potency read?
Its Potency is inconclusive: 35.5 µM [inhibitor, single point].

For COCCCNc1nc2c(-c3ccc(Cl)cc3)nnn2c2ccccc12, which Potency is on record?
The Potency was inconclusive: 7.08 µM [inhibitor, partial curve].

How did the Potency turn out when CNC(=O)c1ccc(-c2ccc(OC)cc2)s1 was run?
Its Potency is inconclusive: 6.31 µM [inhibitor, partial curve].

For COc1cccc(C(=O)Nc2ccc(-c3nnc(-c4ccco4)o3)cc2)c1, which Potency is on record?
The Potency was inconclusive: 35.5 µM [inhibitor, single point].

CC(C)c1ccc(NC(=S)NCCc2c[nH]c3ccccc23)cc1 was tested. Which Potency did it give?
The Potency was “inactive”.

With CN(C)CCNc1ncnc2c1sc1nc(-c3ccccc3)c3c(c12)CCCC3 as the molecule, how does the Potency read?
Its Potency is inconclusive: 35.5 µM [inhibitor, single point].

How did the Potency turn out when O=C1c2cccc3cccc(c23)C(=O)N1OS(=O)(=O)c1ccccc1 was run?
The Potency was inconclusive: 31.6 µM [inhibitor, partial curve].

How did the Potency turn out when COC(=O)c1ccc2c(=O)n(CCCCCC(=O)NC(C)C)c(=O)[nH]c2c1 was run?
The Potency was inconclusive: 31.6 µM [inhibitor, partial curve].

CC(=O)Nc1cccc(NC(=O)CSc2nnnn2C(C)C)c1 was tested. Which Potency did it give?
The Potency was “inactive”.

CCOC(=O)c1c(-c2cccs2)csc1NC(=O)CC(C)C was tested. Which Potency did it give?
The Potency was inconclusive: 39.8 µM [inhibitor, single point].

Which Potency does the source give for Fc1ccc(-c2cc(C(F)(F)F)n3ncnc3n2)cc1 here?
Its Potency is inconclusive: 31.6 µM [inhibitor, partial curve].

COc1ccc(NC(C)=O)cc1NC(=O)CN1CCN(C(=O)c2ccco2)CC1 was tested. Which Potency did it give?
Its Potency is “inactive”.

How did the Potency turn out when COc1cc(OC)cc(C(=O)N2CCN(c3ncccn3)CC2)c1 was run?
Its Potency is inconclusive: 22.4 µM [inhibitor, partial curve].

With NC(=S)N=Nc1c(O)[nH]c2ccc(F)cc12 as the molecule, how does the Potency read?
Its Potency is “inactive”.

O=C(CN1CCCCC1)Nc1cccc2c1OCO2 was tested. Which Potency did it give?
The Potency was inconclusive: 39.8 µM [inhibitor, single point].

O=[N+]([O-])c1cc(-c2cnc3ccccc3n2)ccc1Oc1ccc(Cl)cc1 was tested. Which Potency did it give?
Its Potency is inconclusive: 39.8 µM [inhibitor, single point].

Which Potency does the source give for CCN(CC)CCN(Cc1cc2cc(C)ccc2[nH]c1=O)C(=O)Nc1ccccc1OC here?
Its Potency is inconclusive: 25.1 µM [inhibitor, single point].

With N#Cc1c(N)c(C#N)c(-c2ccc(O)cc2)c2c1CCCC2 as the molecule, how does the Potency read?
The Potency was inconclusive: 35.5 µM [inhibitor, partial curve].

With C=CCn1c(=N)c(C(=O)NCCCOC)cc2c(=O)n3ccccc3nc21 as the molecule, how does the Potency read?
The Potency was inconclusive: 25.1 µM [inhibitor, partial curve].

How did the Potency turn out when Cc1cccc(C(=O)Nc2sc(C)c(-c3ccccc3)c2C#N)c1 was run?
Its Potency is inconclusive: 35.5 µM [inhibitor, partial curve].

Which Potency does the source give for COc1ccccc1C1=Nc2cccc3cccc(c23)N1 here?
Its Potency is inconclusive: 25.1 µM [inhibitor, partial curve, poor fit].

Which Potency does the source give for COCCN=c1scc(-c2ccccc2)n1/N=C/c1c[nH]c2ccccc12 here?
The Potency was “inactive”.

How did the Potency turn out when CC(=O)N1CCC(C(=O)Nc2cc(C)cc(C)c2)CC1 was run?
Its Potency is “inactive”.

With Fc1ccc(N=c2ssnc2Cl)c(F)c1 as the molecule, how does the Potency read?
Its Potency is inconclusive: 5.01 µM [inhibitor, single point].

With CC(Sc1nnc(NCc2ccccc2)s1)C(=O)Nc1ccc2c(c1)C(=O)c1ccccc1C2=O (stereo unspecified) as the molecule, how does the Potency read?
The Potency was inconclusive: 22.4 µM [inhibitor, single point].

Which Potency does the source give for COc1ccc(Cn2cnc([N+](=O)[O-])c2)cc1[N+](=O)[O-] here?
Its Potency is “inactive”.

How did the Potency turn out when CC(=O)O/N=C1\C(=O)N(Cc2ccc(C)cc2)c2ccccc21 was run?
Its Potency is “inactive”.

With CCOc1cc(/C=N/n2cnnc2)ccc1O as the molecule, how does the Potency read?
Its Potency is inconclusive: 39.8 µM [inhibitor, single point].

With O=C(CCCNS(=O)(=O)c1cccc2nsnc12)NC1CCCCC1 as the molecule, how does the Potency read?
The Potency was inconclusive: 35.5 µM [inhibitor, single point].

For COc1ccc(C(=O)C2CCCN(C(=O)CCc3scnc3C)C2)c(C)c1 (stereo unspecified), which Potency is on record?
Its Potency is inconclusive: 3.98 µM [inhibitor, full curve].

CCOC(=O)c1cc2c(=O)n3cc(C)ccc3nc2n(Cc2cccnc2)c1=N was tested. Which Potency did it give?
The Potency was inconclusive: 17.8 µM [inhibitor, partial curve].

For O=c1oc2ccccc2cc1-c1nnc(-c2cccc(Br)c2)o1, which Potency is on record?
The Potency was inconclusive: 3.98 µM [inhibitor, partial curve].

With S=C(Nc1ccccc1)Nc1ccc2cn[nH]c2c1 as the molecule, how does the Potency read?
The Potency was inconclusive: 22.4 µM [inhibitor, partial curve, poor fit].

Which Potency does the source give for CC(=O)Oc1ccc(-c2cccc(C(=O)N(C)c3ccc(O)cc3)c2)cc1 here?
The Potency was “inactive”.

For Cc1cc(/C=N/NC(=O)CC2(C)OCCO2)c(C)n1-c1ccc(Cl)c(Cl)c1, which Potency is on record?
The Potency was inconclusive: 31.6 µM [inhibitor, single point].

For CCc1cccc(OCC(=O)Nc2ccc(S(=O)(=O)Nc3ccccn3)cc2)c1, which Potency is on record?
The Potency was inconclusive: 31.6 µM [inhibitor, partial curve].

How did the Potency turn out when COc1ccc(CNC(=O)c2cc(-c3ccncc3)nc3c(C)cc(C)cc23)cc1OC was run?
The Potency was inconclusive: 25.1 µM [inhibitor, single point].

With Cc1ccc(-c2cc(C(F)(F)F)n3nc(C(=O)Nc4ccon4)cc3n2)cc1C as the molecule, how does the Potency read?
The Potency was inconclusive: 35.5 µM [inhibitor, single point].

Nc1c(C(=O)Nc2ccccc2)sc2nc(-c3ccco3)ccc12 was tested. Which Potency did it give?
Its Potency is inconclusive: 28.2 µM [inhibitor, partial curve].

With O=C1CC(c2cccc(Cl)c2)CC(O)=C1C=Nc1cccc(Cl)c1 (stereo unspecified) as the molecule, how does the Potency read?
Its Potency is inconclusive: 22.4 µM [inhibitor, single point].

With CN(C)N1C(N)=C(C#N)C(c2cccs2)C2=C1CC(C)(C)CC2=O (stereo unspecified) as the molecule, how does the Potency read?
Its Potency is “inactive”.

How did the Potency turn out when Cc1nccn1CC(=O)N/N=C/c1ccc(O)c(O)c1 was run?
The Potency was active: 12.6 µM.

With COc1ccc(C)cc1NC(=O)CN1CCN(S(=O)(=O)c2ccc(Br)cc2)CC1 as the molecule, how does the Potency read?
Its Potency is “inactive”.

Which Potency does the source give for CC(C)(C)C(=O)CN1CCN(S(=O)(=O)c2ccc(F)cc2)CC1 here?
The Potency was “inactive”.

For COc1ccc(C(=O)NNC(=S)NC(=O)c2cc(-c3ccccc3)nc3ccccc23)cc1, which Potency is on record?
The Potency was inconclusive: 39.8 µM [inhibitor, single point].

With Cc1ccc(C(=O)NC(=O)CSc2ncccc2C(=O)O)cc1 as the molecule, how does the Potency read?
The Potency was “inactive”.

For CCNc1nc(CN2CCOCC2)nc2sc3c(c12)CCC3, which Potency is on record?
The Potency was inconclusive: 31.6 µM [inhibitor, single point].

Which Potency does the source give for COc1ccc(S(=O)(=O)C(C#N)c2nc3ccccc3nc2N2CCCCC2)cc1 (stereo unspecified) here?
Its Potency is inconclusive: 20 µM [inhibitor, partial curve].

With O=c1[nH]c2cc3c(cc2cc1CN(CCCO)C(=S)NCc1ccco1)OCO3 as the molecule, how does the Potency read?
The Potency was inconclusive: 28.2 µM [inhibitor, partial curve].

Which Potency does the source give for COc1ccc(CCNC(=O)COC(=O)/C=C/c2cccs2)cc1 here?
The Potency was inconclusive: 28.2 µM [inhibitor, single point].

With Cc1c(C(=O)Nc2ccc(-c3nnc4n3CCCCC4)cc2)oc2ccc(Br)cc12 as the molecule, how does the Potency read?
Its Potency is “inactive”.

With Oc1c(C(Nc2ccccn2)c2cccnc2)cc(Cl)c2cccnc12 (stereo unspecified) as the molecule, how does the Potency read?
The Potency was inconclusive: 39.8 µM [inhibitor, single point].

COc1cccc(CNc2ccccc2O)c1OCc1ccccc1F was tested. Which Potency did it give?
The Potency was inconclusive: 31.6 µM [inhibitor, single point].

With COC(=O)[C@@H]1CCCN1C(=O)CCc1nnc(CCc2c[nH]c3ccccc23)o1 as the molecule, how does the Potency read?
The Potency was “inactive”.

Which Potency does the source give for CSc1ccc(CN2CCCC(CO)(Cc3ccccc3)C2)cc1 (stereo unspecified) here?
Its Potency is “inactive”.

For Cc1ccccc1CN1CCN(CC(=O)NCc2ccc3c(c2)OCO3)C1=O, which Potency is on record?
The Potency was “inactive”.

Which Potency does the source give for CCN(CC)C(=O)C1CCCN(Cc2cccc(Oc3ccccc3)c2)C1 (stereo unspecified) here?
Its Potency is inconclusive: 28.2 µM [inhibitor, single point].

For Cc1ccc(-c2cc3nc(C)cc(NCc4ccco4)n3n2)cc1, which Potency is on record?
The Potency was inconclusive: 31.6 µM [inhibitor, partial curve].

How did the Potency turn out when Cc1cc2nc(-c3ccc(SCc4ccccc4C#N)nc3)[nH]c2cc1C was run?
The Potency was inconclusive: 31.6 µM [inhibitor, partial curve].

With O=C(Nc1cccc2ccccc12)N1CC=C(c2ccccc2)CC1 as the molecule, how does the Potency read?
Its Potency is inconclusive: 28.2 µM [inhibitor, partial curve].

CCn1c(=O)cc(SCC(=O)NCc2ccc(C)cc2)c2ccccc21 was tested. Which Potency did it give?
Its Potency is inconclusive: 28.2 µM [inhibitor, single point].

For CC(C)CN1C(=O)/C(=C/c2c(N3CCc4ccccc4C3)nc3ccccn3c2=O)SC1=S, which Potency is on record?
The Potency was “inactive”.

How did the Potency turn out when CCOC(=O)COc1nc(-c2ccc(C)cc2)cc(-c2ccco2)c1C#N was run?
The Potency was inconclusive: 31.6 µM [inhibitor, partial curve].
